Source: patent publication US20220242974A1 (QURE BIOTECHNOLOGY SHANGHAI, published 2022)

B1: QP1142-FC (Fc fusion)
chain: QVQLVESGGGSVQAGGSLTLSCAVSGNTYSTNIMGWFRQAPGKEREGVAAILAGGRNTYYADSVKGRFTISQDNAKNTVYLQMNSLKPEDTAMYYCAADTRAAFWNIGPLNSDQYNIWGQGTQVTVSS[human IgG1 Fc with changes skipped]
B2: QP1150-FC (Fc fusion)
chain: QVQLVESGGGSVQAGGSLTLSCAVSGNTYSTKYMGWFRQAPGKEREGVAAILAGGRNTHYADSVKGRFAISQDNAKNTVYLQMNSLKPEDTAMYYCAADTRAAFWNIGPLNSDQYNIWGQGTQVTVSS[human IgG1 Fc with changes skipped]
notes: also called OP1150-FC
B3: QP320 (Fc fusion)
chain: EVQLLESGGGLVQPGGSLRLSCAASGFTYGTYAMSWVRQAPGKGLEWVSCIDIYGRASYTDPVKGRFTISRDNSKNTLYLQMNSLRAEDTAVYYCAARDFGYCTASWVHEGFSRYWGQGTLVTVSS[human IgG1 Fc with changes skipped]
B4: QP322 (Fc fusion)
chain: EVQLLESGGGLVQPGGSLRLSCAASGFTYGTYAMSWFRQAPGKGREGVACIDIYGRASYTDPVKGRFTISQDNSKNTLYLQMNSLKAEDTAVYYCAARDFGYCTASWVHEGFSRYWGQGTLVTVSS[human IgG1 Fc with changes skipped]
notes: as QP320; also called 1162-V3; QD322
B5: QP321 (Fc fusion)
chain: EVQLLESGGGLVQPGGSLRLSCAASGFTYGTYAMSWVRQAPGKGLEWVACIDIYGRASYTDPVKGRFTISRDNSKNTLYLQMNSLKAEDTAVYYCAARDFGYCTASWVHEGFSRYWGQGTLVTVSS[human IgG1 Fc with changes skipped]
B6: QP325 (Fc fusion)
chain: EVQLLESGGGLVQPGGSLRLSCAASGFTYGTYAMSWFRQAPGKGLEGVACIDIYGRTSYTDPVKGRFTISQDNSKNTLYLQMNSLRAEDTAVYYCAARDFGYCTASWVHEGFSRYWGQGTLVTVSS[human IgG1 Fc with changes skipped]
notes: as QP320; also called 1166-V3; QD325
B7: QP324 (Fc fusion)
chain: EVQLLESGGGLVQPGGSLRLSCAASGFTYGTYAMSWVRQAPGKGLEWVACIDIYGRTSYTDPVKGRFTISQDNSKNTLYLQMNSLRAEDTAVYYCAARDFGYCTASWVHEGFSRYWGQGTLVTVSS[human IgG1 Fc with changes skipped]
notes: as QP320; also called 1166-V2; QD324
B8: QP1166-FC (Fc fusion)
chain: QVQLVESGGDSVQPGGSLRLSCAASGFTYGTYAMSWFRQAPGKEREGVACIDIYGRTSYTDPVKGRFTISQDNAKNTLYLQMNSLKPEDTAMYYCAARDFGYCTASWVHEGFSRYWGQGTQVTVSS[human IgG1 Fc with changes skipped]
B9: QP1162-FC (Fc fusion)
chain: QVQLVESGGGSVQSGGSLRLSCAASGFTYGTYAMSWFRQAPGKEREGVACIDIYGRASYTDPVKGRFTISQDNAKNTLYLQMNSLKPEDTAMYYCAARDFGYCTASWVHEGFSRYWGQGTQVTVSS[human IgG1 Fc with changes skipped]
B10: QP1122-FC (Fc fusion)
chain: QVQLVESGGGSVQAGGSLTLSCAVSGNTYSTNVMGWFRQAPGKEREGVAAILAGGRNTYYADSVKGRFTISQDNAKNTVYLQMNSLKPEDTAMYYCAADTRAAFWNIGPLNSDQYNIWGQGTQVTVSS[human IgG1 Fc with changes skipped]
B11: QP1126-FC (Fc fusion)
chain: QVQLVESGGGSVQAGGSLTLSCAVSGNTYSTKYMSWFRQAPGKEREGVAAILAGGRNTYYADSVKGRFTISQDNAKNTVYLRMNSLKPEDTAMYYCAADTRAALWYIGPLNSDQYNTWGQGTQVTVSS[human IgG1 Fc with changes skipped]

target: T1, mPDL1-Biotin (mouse, UniProt Q9EP73 fragment, limits assumed, biotinylated); test: ELISA: mPDL1-Biotin 1 ug/ml captured on a streptavidin plate, test antibody titrated, HRP-anti-hFc, OD450
T1 construct: also called biotinylated mouse PD-L1 protein; Mouse PDL1

mPDL1-Biotin, sequence (Q9EP73 19-239 limits assumed): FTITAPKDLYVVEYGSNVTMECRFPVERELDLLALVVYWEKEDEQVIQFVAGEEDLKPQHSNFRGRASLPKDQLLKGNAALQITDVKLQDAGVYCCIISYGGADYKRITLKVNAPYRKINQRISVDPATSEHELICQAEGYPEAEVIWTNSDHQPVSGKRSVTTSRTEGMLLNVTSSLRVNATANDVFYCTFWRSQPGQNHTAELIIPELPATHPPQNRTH

Binder	binding result
B1	no binding
B2	no binding

target: T2, biotin-PDL1-FC (human, UniProt Q9NZQ7 fragment, limits assumed, biotinylated); test: ELISA, antibody coated, biotin-PDL1-FC titrated, HRP-streptavidin
T2 construct: also called biotinylated human PDL1 protein

Binder	OD at 0.0007 ug/ml biotin-PDL1-FC	OD at 0.0021 ug/ml biotin-PDL1-FC	OD at 0.0062 ug/ml biotin-PDL1-FC	OD at 0.0185 ug/ml biotin-PDL1-FC	OD at 0.0556 ug/ml biotin-PDL1-FC	OD at 0.1667 ug/ml biotin-PDL1-FC	OD at 0.5000 ug/ml biotin-PDL1-FC	OD at 2.0000 ug/ml biotin-PDL1-FC
B3	0.125	0.114	0.108	0.0792	0.0843	0.0957	0.142	0.23
B4	0.176	0.411	1.27	2.07	2.7	2.78	2.79	3
B5	0.156	0.156	0.12	0.096	0.0756	0.0836	0.138	0.225
B6	0.182	0.598	1.32	2.12	2.78	3.11	3.21	3.42
B7	0.192	0.141	0.15	0.107	0.0882	0.129	0.201	0.413
B8	0.217	0.56	1.55	2.57	3.23	3.13	3.28	3.41

target: T3, QPP10.1: PD-L1 Protein, Cynomolgus, Recombinant (His Tag) (cynomolgus, UniProt G7PSE7 19-238); test: SPR, Biacore T200, 1:1 binding, antibody captured
T3 construct: also called cynoPD-L1; SinoBiologic 90251-C08H
T3 sequence (G7PSE7 entry or part of it limits assumed): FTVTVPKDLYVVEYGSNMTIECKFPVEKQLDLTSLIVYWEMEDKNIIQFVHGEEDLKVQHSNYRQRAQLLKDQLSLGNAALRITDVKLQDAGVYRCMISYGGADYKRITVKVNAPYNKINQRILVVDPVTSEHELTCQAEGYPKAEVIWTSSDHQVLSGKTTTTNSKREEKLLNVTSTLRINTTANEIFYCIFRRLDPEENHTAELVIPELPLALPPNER

Binder	Kd [nM]	koff [s⁻¹]	kon [M⁻¹ s⁻¹]
B4	5.39	0.00354	657000
B6	19.6	0.00416	212000
B8	5.6	0.00266	475000
B9	5.6	0.00401	715000
B10	6.55	0.0304	4.64e+06
B11	7.87	7.43	9.44e+08

target: T4, QPP09.1: PD-L1 Protein, Human, Recombinant (His Tag) (human, UniProt Q9NZQ7 fragment); test: SPR, Biacore T200, 1:1 binding, antibody captured
T4 construct: also called human PD-L1; SinoBiologic 10084-H08H

Binder	Kd [nM]	koff [s⁻¹]	kon [M⁻¹ s⁻¹]
B4	2.37	0.00311	1.31e+06
B6	10.7	0.004	375000
B8	2.63	0.00255	968000
B9	2.77	0.00379	1.37e+06
B10	3.26	0.0389	1.19e+07
B11	3.1	5.69	

target: T2, biotin-PDL1-FC; test: blocking ELISA, PD1-FC (QP1138) coated, biotin-PDL1-FC 2 ug/ml, HRP-streptavidin
T2 sequence (Q9NZQ7 19-238 limits assumed): as the sequence (G7PSE7 entry or part of it limits assumed) above, with T33A, S34A, N62S, Q68R, R82Q, L173F, A185T, I192T, L215H counted along it

Binder	OD at 0.0457 nM antibody	OD at 0.1372 nM antibody	OD at 0.4115 nM antibody	OD at 1.2346 nM antibody	OD at 3.7037 nM antibody	OD at 11.1111 nM antibody	OD at 33.3333 nM antibody	OD at 100.0000 nM antibody
B3	1.21	1.3	1.47	1.08	1.11	1.12	1.02	0.793
B4	1.21	1.11	1.27	0.969	0.914	0.484	0.28	0.203
B5	1.37	1.14		1.1	1.01	0.997	1.07	0.977
B6	1.08	1.02	0.975	0.995	1.03	0.513	0.238	0.156
B7	1.29	1.06	0.901	0.879	0.895	0.753	0.737	0.661
B8	1.16	1.24	1.06	1.13	1.06	0.508	0.239	0.167
